# Measured values taken from publication doi:10.1101/869909 (bioRxiv, 2019).
# B1: HSP27, unmodified (semisynthetic) (natural protein)
# chain: not shown
# B2: HSP27(gT184), HSP27 with O-GlcNAc at Thr184 (semisynthetic) (natural protein)
# chain: not shown
# modifications: O-GlcNAc at Thr184
# Target: the molecule itself
# Experiment: SEC-MALS
row,Protein,stoichiometry N
1,B1,~28 monomers
2,B2,~47 monomers
